From PubChem BioAssay AID2451 (National Center for Advancing Translational Sciences (NCATS), 2010)
Among all 290,000 compounds or so, about 2,100 (0.72%) were called active. About 4% were inconclusive and are not listed. Calls come from the whole dose curve; as a rule, active = well fitted inhibition curve with a large enough effect; inconclusive = small, poorly fitted or top-dose-only effect, or effect the other way; inactive = flat fitted curve, though single readings scatter. Only a part is listed here, and it is no random draw. Some structures have more than one record in an assay (separate samples or runs), and their calls can disagree.

target: Fructose-bisphosphate aldolase (Giardia intestinalis (strain ATCC 50803 / WB clone C6)) (UniProt A8B2U2); assay: qHTS Assay for Inhibitors of Fructose-1,6-bisphosphate Aldolase from Giardia Lamblia; conditions: purified Giardia FBPA; series mostly up to 59.6 µM; activity, negative = inhibition: at the top concentration; note: nearly all actives have a fitted effect of over 55% in size
Source text: Assay Provider: Osnat Herzberg, University of Maryland
The objective of this project is to obtain compounds that inhibit Giardia lamblia growth. G. lamblia is a human pathogen which afflicts impoverished nations; it is the most common cause of outbreaks of diarrhea in the United States. During the course of our study of potential drug targets in Giardia, we have identified the Class II (Zn2+ functions in electrophilic catalysis) fructose-1,6-bisphosphate aldolase (FBPA) as an excellent candidate for drug targeting. FBPA is a key glycolytic pathway enzyme, essential for G. lamblia survival. The human FBPA belongs to the Class I aldolases, which have a different substrate binding site structure and a radically different catalytic mechanism (employing a lysine-Schiff base intermediate). Therefore, affinity-based or mechanism-based inhibitors of the Giardia FBPA are expected not to interfere with the catalytic function of the human FBPA.
A glyceraldehyde-3-phosphate dehydrogenase/triose phosphate isomerase/NAD/arsenate coupled assay was adapted to the 1536-well HTP format for use in the primary screen. This was done by coupling it to a diaphorase/resazurin/resorufin reaction that can be monitored by fluorescence (excitation, 544 nm; emission, 590 nm). Compounds identified in this screen will be further evaluated by coupling the glycerol-3-phosphate/triose phosphate isomerase/NADH assay to a phenazine methosulfate/tetranitroblue tetrazolium color reaction. False positives due to the dehydrogenases and diaphorase inhibition will be eliminated, and selectivity assay will triage inhibitors of mammalian triose phosphate isomerase and the Class I FBPA. G. lamblia FBPA inhibitors identified by the in vitro analyses will be examined for growth inhibition of Giardia trophozoites, and for cytotoxicity in human cells.
Step,Parameter,Value,Description
1,Enzyme reagent,2 uL,40 nM FBPA
2,Compound,23 nL,3.68 nM-57.5 uM final concentration
3,Time,10 min,RT Incubation
4,Substrate/detection Reagent,2 uL,Substrate + enzyme coupling system + AmpLite Red kit
5,Time,20 min,RT Incubation
6,Detector,525 nm/598 nm (Fluorescence),ViewLux Fluorescence Read (Read 1)
1,Medium-binding black solid-bottom Kalypsys plates. FRD or Kalypsys dispenser, 2 uL of FBPA enzyme. Bottle kept at 4C.
2,Compound Library (10 mM ,1:5 dilution). Pin-transferred for a [final] range of 3.68 nM-57.5 uM.
4,FRD or Kalypsys dispenser, 2 uL of reaction mixture. Bottle kept at 4C and covered in foil to protect from light.
6,ViewLux Protocol 1194; Excitation filter wheel A (525/20 Pol; BODIPY TMR FP), Emission filter wheel B (598/25 S; BODIPY TMR FP S).
Keywords: Fructose-bisphosphate aldolase, FBPA , Giardia lamblia , Giardia, HTS, Inhibitors
% is set by controls: 0 for no effect and ±100 for the full control effect; potency is the fitted concentration of half-maximal effect.

UniProt A8B2U2, sequence (A8B2U2 whole entry, looked up): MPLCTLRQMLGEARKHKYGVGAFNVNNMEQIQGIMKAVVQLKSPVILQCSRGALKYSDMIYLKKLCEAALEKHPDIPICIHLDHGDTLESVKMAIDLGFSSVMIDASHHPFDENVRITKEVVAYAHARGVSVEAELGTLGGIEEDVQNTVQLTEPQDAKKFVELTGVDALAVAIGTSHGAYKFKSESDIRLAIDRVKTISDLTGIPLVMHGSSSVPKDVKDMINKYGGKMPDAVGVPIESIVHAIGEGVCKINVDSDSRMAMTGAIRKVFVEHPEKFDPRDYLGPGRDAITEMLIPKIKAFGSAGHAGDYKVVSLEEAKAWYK

Structure (SMILES)	activity, negative = inhibition	Potency
COc1ccc(CN2C=C3C(=O)C(C)(OC(=O)C4CCCC4)C(=O)C=C3C=C2c2ccsc2)cc1 (stereo unspecified)	inactive: -23.4% [at 12.9 µM]	
COc1ccc2c3c1OC1CC(O)C=C[C@@]31CCN(C)C2 (stereo partly specified)	inactive: 4.88%	
O=[N+]([O-])c1cccc2cn[nH]c12		inactive
NC(=O)C1=C[C@H](c2csc3ccccc23)C[C@H](OCc2ccc(CO)cc2)O1	inactive: 19.6%	
Oc1cc2c(cc1O)[C@H](c1ccccc1)CNCC2	inactive: -16.3%	
CNc1ccc2oc(C[C@H]3O[C@@]4(CC[C@H]3C)O[C@H]([C@H](C)C(=O)c3ccc[nH]3)[C@H](C)C[C@H]4C)nc2c1C(=O)O	inactive: -15%	
COC(=O)c1cccc(-c2ccc(C(c3c(C)[nH][nH]c3=O)c3c(C)[nH][nH]c3=O)o2)c1		active: 14.1 µM
Cc1c(O)c(=O)ccn1C	inactive: -4.58% [at 12.9 µM]	
O=C1C2=C(c3ccccc31)[N+](=O)C1CCCCC1N2[O-] (stereo unspecified)	inactive: -27.1%	
CCCCC1=CC2=C(c3ccco3)C(=O)C(C)(OC(=O)c3ccc(OC)cc3)C(=O)C2=CN1Cc1ccccc1 (stereo unspecified)	inactive: -27.8% [at 12.9 µM]	
O=c1c(O)c(-c2cc(O)c(O)c(O)c2)oc2cc(O)cc(O)c12	inactive: -16.3%	
Cc1ccc(S(=O)(=O)NC(=O)NN2CC3CCCC3C2)cc1 (stereo unspecified)		inactive
C[C@H](CCC(=O)O)C[C@H](C)C[C@H](C)C(=O)/C=C(\O)[C@H](C)C[C@H](C)C/C=C/[C@@H](C)[C@@H](O)[C@@H](C)[C@@H](O)C[C@@H]1CC[C@@](C)(C2CC[C@@](C)([C@@H](C)O)O2)O1 (stereo partly specified)	inactive: 6.4%	
Cc1noc(NS(=O)(=O)c2ccc(N/C=C/C(=O)c3ccccc3)cc2)c1C	inactive: 27.2%	
CC(=O)Oc1cccc2c1C(=O)c1c(OC(C)=O)cc(C(=O)O)cc1C2=O	inactive: -23.9%	
COc1ccc(C(=O)NC(=S)N2CCNC(=O)C2)cc1Br		active: 17.7 µM
CCCc1c(OCCCCc2nn[nH]n2)ccc(C(C)=O)c1O		inactive
Cc1ccc(-c2n[nH]c(=S)n2/N=C/C=C/c2ccccc2[N+](=O)[O-])cc1	inactive: 24.2%	
O=C(N/C(=C\c1ccco1)C(=O)N1CCCC1)c1cccs1	inactive: -12%	
C=CCNC(=S)NS(=O)(=O)c1cccs1		active: 5.61 µM
CC1(C)C(O)CC[C@]2(C)C1CC[C@@]1(C)C2C(=O)C=C2[C@@H]3C[C@@](C)(C(=O)O)CC[C@@]3(C)CCC21C (stereo partly specified)	inactive: 17.9%	
S=C(Nc1ccccn1)c1ccccn1		active: 3.15 µM
CCOC(=O)C1=C(C)N(c2ccccc2)C(=O)/C1=C\c1ccc(O)c(OC)c1		active: 17.7 µM

Structure (SMILES)	activity, negative = inhibition	Potency
CC1OC(OCC2OC(Oc3c(-c4ccc(O)c(O)c4)oc4cc(O)cc(O)c4c3=O)C(O)C(O)C2O)C(O)C(O)C1O (stereo unspecified)	inactive: -24.4%	
C#CCNC(=O)C1=C[C@@H](c2ccc(C(F)(F)F)cc2)C[C@@H](OCCCCO)O1	inactive: -21.3%	
COC(=O)c1ccc(C(=O)O)nc1		active: 19.9 µM
O=[N+]([O-])c1c(Nc2ccccn2)cc(Cl)c2nonc12		active: 0.446 µM
CC1(OC(=O)CCc2ccccc2)C(=O)C=C2C=C(c3ccc(C#N)cc3)N(c3ccccc3)C=C2C1=O (stereo unspecified)	inactive: -5.65% [at 12.9 µM]	
c1ccc(N2CCN(Cc3nc4ccccc4[nH]3)CC2)nc1	inactive: -15.5%	
CNCCC(Oc1ccccc1OC)c1ccccc1 (stereo unspecified)	inactive: 2.47%	
COC1CCCCC1Nc1ccc(C)c(C)c1 (stereo unspecified)		active: 19.9 µM
Oc1cc2c(cc1O)[C@H]1c3ccccc3CNC1CC2 (stereo partly specified)	inactive: -6.96%	
COC(=O)[C@@H]1[C@H]2C[C@H]3c4[nH]c5ccccc5c4CCN3C[C@@H]2CC[C@@H]1O		inactive
Cc1cc(C)nc(NN2C(=O)C=CC2=O)n1		active: 5.01 µM
Cc1ccccc1/C=N/Nc1nc2ccccc2c(=O)n1O		active: 17.7 µM
CNCC[C@H](Oc1ccccc1OC)c1ccccc1	inactive: -2.16% [at 21.7 µM]	
O=C(CSc1ccc(-c2ccco2)nn1)N1CCCCC1		active: 12.6 µM
CCC[C@@H]1C[C@@H](C(=O)N[C@@H](C2O[C@H](SC)[C@H](O)[C@@H](O)[C@H]2O)[C@H](C)Cl)N(C)C1 (stereo partly specified)	inactive: 2.39%	
CCCCC1=CC2=C(c3ccco3)C(=O)C(C)(OC(=O)c3ccc(OC)cc3)C(=O)C2=CN1Cc1ccco1 (stereo unspecified)	inactive: -22.5% [at 12.9 µM]	
CCN(CC)C(=O)CC(c1cc(OC)c(OC)c(OC)c1)c1c(O)cc(OC)cc1OC (stereo unspecified)	inactive: -28%	
Brc1c(NC2=NCCN2)ccc2nccnc12		inactive
Cc1ccc(S(=O)(=O)NC(=O)NN2C[C@H]3CCC[C@@H]3C2)cc1	inactive: -3.62% [at 21.7 µM]	
COc1ccc(S(=O)(=O)N2CCC(N3CCN(Cc4ccccc4)CC3)CC2)cc1		active: 12.6 µM
CC(N)C(O)c1ccc(O)c(O)c1 (stereo unspecified)	inactive: -27.7%	
O=S(=O)(c1cccc(C(F)(F)F)c1)N(CCCN1CCOCC1)Cc1cccs1	inactive: -15.3%	
CN(CC(=O)NCc1ccccc1)Cc1cccc(F)c1		active: 10 µM

Structure (SMILES)	activity, negative = inhibition	Potency
CN1CC(CNC(=O)OCc2ccccc2)CC2c3cccc4c3c(cn4C)CC21 (stereo unspecified)	inactive: -16.4%	
CC(=O)N/N=C/c1c(C)[nH]n(-c2ccccc2)c1=O		active: 15.8 µM
CC(NC(=O)NNC(N)=S)(C(F)(F)F)C(F)(F)F		active: 17.7 µM
CC(=O)NCCc1c[nH]c2ccc(O)cc12	inactive: -21.7%	
CC(=O)N1CCC(=NNc2nc3ccccc3[nH]2)CC1		active: 17.7 µM
Oc1ccccc1CNc1cccc2cccnc12		active: 6.29 µM
CC(=O)N(O)CCCCCNC(=O)CCC(=O)N(O)CCCCCNC(=O)CCC(=O)N(O)CCCCCN		inactive
COC(=O)/C=C1\N/C(=N\c2nc(C)cc(C)n2)N(c2ccc(Cl)cc2)C1=O	inactive: -6.44%	
CO[C@@]1(NC(=O)CSCC#N)C(=O)N2C(C(=O)O)=C(CSc3nnnn3C)CS[C@@H]21		inactive
CC1(OC(=O)C2CCCC2)C(=O)C=C2C=C(c3ccsc3)N(c3ccccc3)C=C2C1=O (stereo unspecified)	inactive: 7.2% [at 12.9 µM]	
COC(=O)c1c(NC(=O)C(C)(C)C)sc2c1CCN(Cc1ccccc1)C2		active: 11.2 µM
Cc1ccccc1NC1=C/C(=N\S(=O)(=O)c2ccc(C(=O)O)cc2)c2ccccc2C1=O		active: 0.794 µM
O=C(/C=C/c1ccccc1)Oc1cccc2cccnc12	inactive: -21.2%	
CC[C@@H]1CN2CCc3cc(OC)c(OC)cc3[C@H]2C[C@@H]1C[C@H]1NCCc2cc(OC)c(OC)cc21	inactive: -1.18% [at 21.7 µM]	
O=c1c(O)c(-c2ccc(O)c(O)c2)oc2cc(O)ccc12	inactive: -17%	
CCOc1ccc2c(c1)C(C)=CC(C)(C)N2	inactive: -21.3%	
N#CCC(=O)Nn1c(=S)[nH]c2ccccc2c1=O		active: 3.54 µM
CCC[C@@H]1C[C@@H](C(=O)NC(C(C)Cl)[C@H]2O[C@H](SC)[C@H](O)[C@@H](O)[C@H]2O)N(C)C1 (stereo partly specified)	inactive: -2.75%	
COc1cc(-c2ccc(N=Nc3ccc4c(S(=O)(=O)O)cc(S(=O)(=O)O)c(N)c4c3O)c(OC)c2)ccc1N=Nc1ccc2c(S(=O)(=O)O)cc(S(=O)(=O)O)c(N)c2c1O		active: 14.1 µM
CN1CCN2c3ccccc3Cc3ccccc3[C@@H]2C1	inactive: -4.77%	
COc1cc2c(cc1O)CC1c3c(cc(O)c(OC)c3-2)CCN1C (stereo unspecified)	inactive: -26%	
NS(=O)(=O)c1cccc2c1c([N+](=O)[O-])cc1nc(O)c(O)nc12	inactive: -9.41%	
CN1C(C(=O)Nc2ccccn2)=C(O)c2sccc2S1(=O)=O	inactive: -15%	

Structure (SMILES)	activity, negative = inhibition	Potency
C=CCN1C(=O)[C@]2(c3ccccc31)C1CCCC=C1C(C#N)=C(N)C2(C#N)C#N (stereo partly specified)	inactive: -23.6%	
COc1cccc2c1cc([N+](=O)[O-])c1c(C(=O)O)cc3c(c12)OCO3	inactive: 6.84%	
CN(C)CCc1cc2c(c3c1ccc1ccccc13)OCO2	inactive: -29.6%	
COC(=O)CCCC1=CC2=C(c3ccccc3)C(=O)C(C)(OC(=O)C3CCCC3)C(=O)C2=CN1C(CO)CO (stereo unspecified)	inactive: -23.1% [at 12.9 µM]	
CC1(OC(=O)C2CCCC2)C(=O)C=C2C=C3CCCCN3C=C2C1=O (stereo unspecified)	inactive: -29.4% [at 12.9 µM]	
COc1cc(/C=C(\C#N)C(=O)c2c[nH]c3ccccc23)cc(OC)c1O		active: 7.92 µM
Nc1ccccc1C(=O)CC(N)C(=O)O (stereo unspecified)	inactive: -2.58%	
Cc1[nH][nH]c(=O)c1C(c1ccc(-c2ccc(C(=O)O)cc2)o1)c1c(C)[nH][nH]c1=O		active: 5.61 µM
CC1=C(C(=O)O)N2C(=O)[C@@H](NC(=O)C(N)c3ccccc3)[C@H]2SC1 (stereo partly specified)	inactive: -1.64%	
Nc1nc2ncc(CNc3ccc(C(=O)NC(CCC(=O)O)C(=O)O)cc3)nc2c(=O)[nH]1 (stereo unspecified)		inactive
S=C(Nc1ccccc1)c1ccccn1	inactive: -0.34%	
CN(C)c1ccc(O)c2c1C[C@@H]1C[C@H]3C(N(C)C)C(=O)C(C(N)=O)=C(O)[C@@]3(O)C(=O)C1=C2O (stereo partly specified)	inactive: -29.6%	
O=C1NC(=O)C(c2ccccc2)(c2ccccc2)N1		inactive
CN[C@H](C)[C@H](O)c1ccccc1	inactive: -6.28%	
Cc1ccc(/C=C2\C(=O)ON=C2c2ccccc2)o1	inactive: -0.53%	
COc1ccc(C2=CC3=C(Br)C(=O)C(C)(OC(=O)c4ccco4)C(=O)C3=CO2)cc1 (stereo unspecified)	inactive: -9.69%	
C=CCN1C=C2C(=O)C(C)(OC(=O)CC)C(=O)C=C2C=C1CCCC (stereo unspecified)	inactive: -29.3% [at 12.9 µM]	
Cc1ccc(-n2c(=S)[nH]c3[nH]ncc3c2=O)cc1		active: 15.8 µM
N[C@H](C(=O)N[C@@H]1C(=O)N2C(C(=O)O)=C(Cl)CS[C@@H]12)c1ccccc1	inactive: -19.8% [at 21.7 µM]	
CC(C)c1ccc2c(c1)c(SC(C)(C)C)c(CC(C)(C)C(=O)O)n2Cc1ccc(Cl)cc1		inactive
CCO[C@@H]1OC(C(=O)NCc2ccccc2)=C[C@H](c2ccc(Br)cc2)[C@H]1CCCO	inactive: 6.5%	
CC(C)[C@@]1(NC(=O)[C@@H]2C[C@H]3c4cccc5[nH]cc(c45)C[C@@H]3N(C)C2)O[C@]2(O)[C@H]3CCCN3C(=O)[C@H](Cc3ccccc3)N2C1=O	inactive: -1.86% [at 21.7 µM]	
